Reference: patent US20160152725A1 (Memorial Sloan Kettering, published 2016)

Target: T1, biotinylated HLA-A2/WT1126 (…) monomer (human, biotin at a specific biotinylation site at the C-terminus)
T1 construct: also called HLA-A2-WT1 monomer; WT1126/HLA-A2
Assay: SPR Biacore T100; biotinylated pMHC captured, antibody injected; 1:1 fit; bivalent, apparent affinity

B1: Q2L scFv-Fc fusion protein (Fc fusion)
chain: EVQLLESGGGLVQPGGSLRLSCAASGFTFSSYAMSWVRQAPGKGLEWVSLIDPWGQETLYADSVKGRFTISRDNSKNTLYLQMNSLRAEDTAVYYCAKLTGRFDYWGQGTLVTVSSGGGGSGGGGSGGGGSTDIQMTQSPSSLSASVGDRVTITCRASQSISSYLNWYQQKPGKAPKLLIYSASLLQSGVPSRFSGSGSGTDFTLTISSLQPEDFATYYCQQGPGTPNTFGQGTKVEIKRKGP[human IgG1 Fc not given here]
notes: also called Q21
- Kd: 2 pM
